From the supplement of paper PMC10498489
Out of some 2,300 compounds screened, about 330 (14%) showed activity.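 How the source made its calls: active = median modified Z-score above 1.96; inactive = 1.96 or below.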 This is a selection; strong and weak results do not stand in their true shares.

Each compound was assayed on HepG2 Srxn1-GFP reporter cells (+30 nM CDDO-Me) (assay: Srxn1-GFP intensity median modified Z-score relative to plate median; higher = stronger NRF2 / oxidative stress reporter activation, active = hit call of the paper). Conditions: 10 µM; exposure time: 24h.
Method in brief: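 Compound at 10 μM was applied with an NRF2 activator at 30 nM to HepG2 Srxn1-GFP BAC reporter cells for 24 h, in DMSO at no more than 0.1%, using three replicate 96-well plates seeded at 20,000 cells per well. Fixed, Hoechst-stained cells were imaged confocally and cytoplasmic GFP was scored for each cell, with images under 100 cells left out. The figure reported is the replicate median of the per-plate modified Z-score of GFP intensity. Scaling relied on 1.4826 × median absolute deviation.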

SMILES	Srxn1-GFP intensity median modified Z-score
CC(COc1ccccc1)N(CCCl)Cc1ccccc1 (stereo not drawn) [euspeclibcmpd203]	active: 3.84
O=C(NCc1ccccc1)OCCO [euspeclibcmpd2412]	inactive: -0.457
CN(C)CCN(Cc1cccs1)c1ccccn1 [euspeclibcmpd547]	inactive: -0.889
NC(=O)N1c2ccccc2C=Cc2ccccc21 [euspeclibcmpd44]	inactive: -0.0932
CCOc1cccc(C(=O)c2ccc(O)c(O)c2O)c1 [euspeclibcmpd1514]	inactive: -0.219
O=c1cc(-c2ccc(O)cc2)oc2cc(O)cc(O)c12 [euspeclibcmpd1685]	inactive: -0.332
CCOc1cc(/C=C/C(=O)O)ccc1OC	inactive: 0.394
CC(C)NCC(O)COc1ccc(COCCOC(C)C)cc1 (stereo not drawn) [euspeclibcmpd915]	inactive: 0.0906
C#CCCCCCCCCCCCC(O)CC(O)CO (stereo not drawn) [euspeclibcmpd1458]	active: 4.24
COc1c2ccoc2nc2c(OC)c(OCC(O)C(C)(C)O)ccc12 (stereo not drawn) [euspeclibcmpd1658]	active: 26
OC[C@H]1O[C@@H](O[C@H]2[C@H](O)[C@@H](O)[C@@H](O)O[C@@H]2CO)[C@H](O)[C@@H](O)[C@@H]1O [euspeclibcmpd2099]	inactive: -0.374
CC[C@H](/C=C/C(C)C1CCC2C3CC=C4CC(=O)CC[C@]4(C)C3CC[C@]12C)C(C)C (stereo partly drawn) [euspeclibcmpd1667]	inactive: -0.11
COc1ccc2cc(C(C)C(=O)O)ccc2c1 (stereo not drawn) [euspeclibcmpd205]	inactive: 0.182
Nc1ccc2cc3ccc(N)cc3nc2c1 [euspeclibcmpd1172]	active: 35.6
Oc1ccc(C(O)O)[nH]1 [euspeclibcmpd1237]	inactive: -0.421
CC12CCC(CC1)C(C)(C)O2 [euspeclibcmpd124]	inactive: -0.228
Cc1cc(CC(=O)O)n(C)c1C(=O)c1ccc(Cl)cc1 [euspeclibcmpd323]	inactive: -0.111
CC(C)CC1NC(=O)C(CCCN)NC(=O)C(C(C)C)NC(=O)C(Cc2ccc(O)cc2)NC(CCC(=O)O)C(=O)NC(CC(N)=O)C(=O)C(Cc2ccccc2)NC(=O)C(Cc2ccccc2)NC(=O)C2CCCN2C(=O)C(Cc2ccccc2)NC1=O (stereo not drawn) [euspeclibcmpd1841]	active: 2.86
COc1c(O)cccc1O [euspeclibcmpd1665]	active: 3.35
C[C@@H]1CC2C3CC=C4CC(=O)C=C[C@]4(C)[C@@]3(Cl)[C@@H](O)C[C@]2(C)[C@@]1(OC(=O)c1ccco1)C(=O)CCl (stereo partly drawn) [euspeclibcmpd756]	active: 2.37
O=C(NCC(O)CO)c1c(I)c(C(=O)NCC(O)CO)c(I)c(N(CCO)C(=O)CO)c1I (stereo not drawn) [euspeclibcmpd1078]	inactive: -0.538
CC(=O)O[C@@H]1CC2C(C)(C)C(=O)C3OC3[C@]2(C)C2CC[C@@]3(C)[C@H](c4ccoc4)OC(=O)C4OC43[C@@]21C (stereo partly drawn) [euspeclibcmpd1644]	active: 5.41
CC(=O)NC(CCC(C)C)C(=O)O (stereo not drawn)	inactive: 1.23
C=CC1=C(C(=O)O)N2C(=O)C(NC(=O)C(=NO)c3csc(=N)[nH]3)C2SC1 (stereo not drawn) [euspeclibcmpd718]	inactive: -0.455
CC1Cc2ccccc2N1NC(=O)c1ccc(Cl)c(S(N)(=O)=O)c1 (stereo not drawn) [euspeclibcmpd159]	inactive: -0.418

SMILES	Srxn1-GFP intensity median modified Z-score
O=C(O)C1CCCN1 (stereo not drawn) [euspeclibcmpd2273]	inactive: -0.414
COC(=O)C(C)=CCC12OC(C)(C)C3CC(=CC4C(=O)c5c(OC)c6c(c(CC=C(C)C)c5OC431)OC(C)(CCC=C(C)C)C=C6)C2=O (stereo not drawn) [euspeclibcmpd2284]	active: 55.9
O=c1cc[nH]c(=S)[nH]1 [euspeclibcmpd1261]	inactive: 0.114
CC(=O)OC1CC2CCC1(C)C2(C)C (stereo not drawn) [euspeclibcmpd1103]	inactive: -0.685
NCCC(=O)NC(Cc1c[nH]cn1)C(=O)O (stereo not drawn) [euspeclibcmpd1431]	inactive: -0.178
O=C1CC2(CCCC2)CC(=O)N1CCCCN1CCN(c2ncccn2)CC1 [euspeclibcmpd948]	inactive: 0.569
Cc1cc(/C=C/c2ccc3cc(N(C)C)ccc3[n+]2C)c(C)n1-c1ccccc1 [euspeclibcmpd260]	active: 28.6
CCn1nc(C(=O)O)c(=O)c2cc3c(cc21)OCO3 [euspeclibcmpd65]	inactive: 0.384
CC(C(=O)O)c1ccc(N2Cc3ccccc3C2=O)cc1 (stereo not drawn) [euspeclibcmpd335]	inactive: -0.117
CN(C)CCOc1ccc(/C(=C(/CCCl)c2ccccc2)c2ccccc2)cc1 [euspeclibcmpd946]	active: 93.7
O=C(NCCO[N+](=O)[O-])c1cccnc1 [euspeclibcmpd2219]	inactive: 0.164
O=C(NCCO[N+](=O)[O-])c1cccnc1 [euspeclibcmpd2369]	inactive: 0.164
CC1CC(OC(=O)C(O)c2ccccc2)CC(C)(C)N1C (stereo not drawn) [euspeclibcmpd2001]	inactive: -0.576
CCCC1O[C@@H]2CC3C4CC=C5CC(=O)C=CC5(C)C4[C@@H](O)CC3(C)[C@]2(C(=O)CO)O1 (stereo partly drawn) [euspeclibcmpd352]	inactive: -0.649
O=C1C2CC3CC1CC(O)(C3)C2 [euspeclibcmpd1208]	inactive: -0.128
CCN1CCN(c2cc3c(cc2F)c(=O)c(C(=O)O)cn3C2CC2)CC1 [euspeclibcmpd683]	inactive: -0.544
COC1=CC(=O)C(=O)C=C1C=CCc1ccccc1 [euspeclibcmpd1419]	active: 9.05
O=C(O)COC(=O)Cc1ccccc1Nc1c(Cl)cccc1Cl [euspeclibcmpd1099]	inactive: 0.786
COc1ccc2c(c1)c(CC(=O)Nc1nccs1)c(C)n2C(=O)c1ccc(Cl)cc1	inactive: 1.66
OC1(c2ccc(Cl)c(C(F)(F)F)c2)CCN(CCCC(c2ccc(F)cc2)c2ccc(F)cc2)CC1 [euspeclibcmpd587]	inactive: -1.37
O=C(O)CCCc1ccccc1 [euspeclibcmpd2401]	inactive: 0.409
CC(=O)Oc1cc(OC(C)=O)c2c(c1)O[C@H](c1ccc(OC(C)=O)c(OC(C)=O)c1)[C@H](OC(C)=O)C2 [euspeclibcmpd2220]	inactive: 0
CN1CCN(CCCN2c3ccccc3Sc3ccc(Cl)cc32)CC1 [euspeclibcmpd249]	active: 3.78
N=c1[nH]c(=S)c2nc[nH]c2[nH]1 [euspeclibcmpd292]	active: 28.2
NCCCCS(=O)(=O)O	active: 10.1

SMILES	Srxn1-GFP intensity median modified Z-score
CC(C)/N=c1\cc2n(-c3ccc(Cl)cc3)c3ccccc3[nH]c-2cc1=Nc1ccc(Cl)cc1 [euspeclibcmpd891]	active: 7.89
C1CNCCN1 [euspeclibcmpd2044]	active: 5.44
COc1c2occc2c(OC)c2c(=O)cc(C)oc12 [euspeclibcmpd1011]	inactive: -0.716
CC1CCC2[C@@]3(C)C=CC(=O)C(C)(C)C3CC3OC(=O)C(=O)C1[C@]32C (stereo partly drawn) [euspeclibcmpd1535]	active: 9.38
Cc1c(N(C)CS(=O)(=O)O)c(=O)n(-c2ccccc2)n1C [euspeclibcmpd2168]	inactive: -0.462
CC(=O)O[C@@H]1CC2C(C)(C)C(=O)CC[C@]2(C)C2CC[C@@]3(C)[C@H](c4ccoc4)OC(=O)C4OC43[C@@]21C (stereo partly drawn) [euspeclibcmpd1587]	active: 32.1
C[C@@H]1O[C@@H](O[C@H]2[C@H](Oc3cc(O)c4c(=O)cc(-c5ccc(O)cc5)oc4c3)O[C@H](CO)[C@@H](O)[C@@H]2O)[C@H](O)[C@H](O)[C@H]1O [euspeclibcmpd1319]	inactive: 0.395
O=S(=O)(O)NC1CCCCC1 [euspeclibcmpd2052]	inactive: -0.268
O=S(=O)(O)NC1CCCCC1 [euspeclibcmpd2459]	inactive: 0.0532
CCN(CC)CCc1nc(-c2ccccc2)no1 [euspeclibcmpd2430]	active: 10.5
COc1ccccc1OCC(O)CN1CCN(CC(=O)Nc2c(C)cccc2C)CC1 (stereo not drawn) [euspeclibcmpd755]	inactive: -0.121
COc1c(C/C=C(\C)CCC(=O)OCCN2CCOCC2)c(O)c2c(O)occ2c1C [euspeclibcmpd688]	active: 5.22
CCCNCC(O)COc1ccccc1C(=O)CCc1ccccc1 (stereo not drawn) [euspeclibcmpd641]	inactive: 0.9
CN(C)c1nc(N(C)C)nc(N(C)C)n1 [euspeclibcmpd517]	inactive: 0.935
O=C(O)c1cc(-c2ccccc2)nc2ccccc12 [euspeclibcmpd1182]	inactive: 0.423
CC(C)NCC(O)c1ccc2ccccc2c1 (stereo not drawn) [euspeclibcmpd1142]	inactive: -0.55
c1ccc([C@H]2CN3CCSC3=N2)cc1 [euspeclibcmpd2246]	inactive: 0.727
CN(C)CC/C=C1\c2ccccc2Sc2ccc(Cl)cc21 [euspeclibcmpd538]	inactive: -1.04
Cc1c(O)c(=O)ccn1C [euspeclibcmpd1185]	inactive: -0.715
O=C(/C=C/C(=O)Oc1ccccc1C(=O)O)Oc1ccccc1C(=O)O [euspeclibcmpd1772]	inactive: -0.354
COc1ccc(C2CNC(=O)C2)cc1OC1CCCC1 (stereo not drawn) [euspeclibcmpd1287]	inactive: -0.259
O=c1c(O)c(-c2ccccc2)oc2cc(O)ccc12 [euspeclibcmpd1652]	inactive: 0.171
COc1cc(-c2coc3cc(O[C@@H]4O[C@H](CO)[C@@H](O)[C@H](O)[C@H]4O)c(OC)c(O)c3c2=O)cc(O)c1OC [euspeclibcmpd1635]	inactive: -0.457
